# Experimental data published in PubChem BioAssay AID686979 (National Center for Advancing Translational Sciences (NCATS), 2013).
# Screen size: about 420,000 compounds; about 50,000 (12%) were called active. The shares of active, inactive and inconclusive entries below differ from those in the screen. Calls follow the shape of the dose curve; as a rule, active = well fitted inhibition curve with a large enough effect; inconclusive = small, poorly fitted or top-dose-only effect; inactive = flat fitted curve, though single readings scatter. No potency is given beside an inconclusive call; the fits are too rough.
# Assay: qHTS for Inhibitors of human tyrosyl-DNA phosphodiesterase 1 (TDP1): qHTS in cells in presence of CPT; also: nearly all actives have a fitted effect of over 55% in size
# Conditions: chicken DT40 Tdp1-/-;hTDP1 cells + 20 nM CPT, ATP luminescence, 48 h; activity change, negative = growth inhibition: at 46.2 µM (top of the series) unless noted
# Method in brief: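 Cell growth measured by CellTiter-Glo luminescence after a minimum 48 h, 37 C compound exposure with 20 nM CPT in Tdp1-knockout DT40 cells stably expressing hTDP1, seeded 400/well; qHTS titration format.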
# % is scaled to controls: 0 for no effect and ±100 for the full control effect; potency is read from the fitted curve at half-maximal effect; tags tell the direction and shape of the fitted curve.
SMILES,Potency,"activity change, negative = growth inhibition"
CC(C)(C#N)NC(=O)C1CCCN1S(=O)(=O)c1ccc2ccccc2c1 (stereo unspecified),active: 23.1 µM,
CCOc1ccc(Nc2ccc(N)c(S(=O)(=O)O)c2)cc1,inactive,
N#C/C(C(=S)Nc1ccccc1)=C1/NN=C(N2CCOCC2)N1c1ccccc1,"inconclusive [inhibitor, single point]",
Cc1onc(-c2ccccc2)c1C(=O)Nc1nc(-c2ccccc2)cs1,"inconclusive [inhibitor, single point]",
Cc1nc(NC(=O)C(C)Oc2cccc(Cl)c2)sc1C(=O)N(C)C (stereo unspecified),"inconclusive [inhibitor, single point]",
O=C(NNC(=O)c1c(F)cccc1F)c1ccccc1OC(F)(F)F,inactive,
CCn1c2c(c(=O)n3ncc(C(=O)Nc4cccc(Cl)c4C)c13)CN(Cc1ccc(OC)cc1)CC2,active: 20.6 µM,
C/C(=N\Nc1ccc([N+](=O)[O-])cc1)c1cccc(N)c1,"inconclusive [inhibitor, single point]",
COc1ccc(CNC(=O)C2CCN(c3nc4ccc(C)cc4[nH]3)CC2)cc1,"inconclusive [inhibitor, single point]",
C[C@@H]1c2ccccc2CN1CC1=NCCN1,"inconclusive [inhibitor, partial curve, poor fit]",
COc1ccc(-c2ccc3c(c2)S(=O)(=O)c2cccc(C(=O)NC4CC4)c2C3=O)cc1OC,"inconclusive [inhibitor, partial curve]",
COc1cc(CNCCCN2CCOCC2)cc(Br)c1OCC(=O)N1CCCCC1,,inconclusive: -30.5% [inhibitor]
CCOC(=O)c1ccc(NC(=O)C2CC2)cc1,active: 8.2 µM,
COC(=O)c1ccc(OC(=O)c2ccc(OC)cc2)c(OC)c1,inactive,
O=S1(=O)Nc2c(ccc3cccnc23)-c2ccccc21,active: 1.16 µM,
COc1ccc(C(=O)/C=C/c2ccc(OC)c(CN3CCOCC3)c2)cc1,"inconclusive [inhibitor, single point]",
Oc1[nH]c2ccccc2c1N=NC(=S)NCC1CCCO1 (stereo unspecified),"inconclusive [inhibitor, partial curve]",
Cc1ccc(-c2csc(-c3c[nH]c4ccccc34)n2)c(C)c1,"inconclusive [inhibitor, single point]",
COc1ccc(-c2[nH]ncc2/C=N\NS(=O)(=O)c2ccccc2)cc1OC,,inconclusive: -30.5% [inhibitor]
Cc1cc(C)c2c(N)c(-c3nc4ccccc4[nH]3)sc2n1,"inconclusive [inhibitor, single point]",
COc1ccc(CNC[C@@H](CCCCN(C)Cc2ccc(OC)cc2)N2C[C@H](c3ccccc3)N(CCc3ccc(Cl)c(Cl)c3)C(=O)C2=O)cc1,"inconclusive [inhibitor, single point]",
Cc1c(C(=O)NCCN2CCCC(O)C2)oc2c(F)cccc12 (stereo unspecified),inactive,
CCCn1nc2cc(C(=O)NC3CCc4ccccc43)ccc2c1OCC (stereo unspecified),"inconclusive [inhibitor, single point]",

SMILES,Potency,"activity change, negative = growth inhibition"
COc1cccc(-c2nc(CN3CCN(C(=O)c4ccco4)CC3)c(C)o2)c1OC,"inconclusive [inhibitor, single point]",
O=C(Nc1ccc(N2CCN(CCOc3ccc(Cl)cc3)CC2)c(C(=O)O)c1)c1ccc(F)cc1,inactive,
Cc1ccc(CN2CCC[C@]3(N[C@H](c4ccccc4)[C@@H]4C(=O)N(Cc5ccccc5)C(=O)[C@@H]43)C2=O)cc1,active: 25.9 µM,
O=C(O)CCCCCNC(=O)Cn1nnc2ccccc2c1=O,inactive,
Cc1nn(C(C)C(=O)NCc2ccccc2)c(C)c1[N+](=O)[O-] (stereo unspecified),inactive,
Cc1ccc(O)c(Cn2nnc3ccccc32)c1,"inconclusive [inhibitor, single point]",
COc1ccc(CNC(=O)CCSCc2cccc(Cl)c2)cc1,inactive,
O=Cc1cn(-c2ccccc2)nc1-c1ccncc1,"inconclusive [inhibitor, single point]",
CCCn1c(SCC(O)c2cccc(OC)c2)nc2ccccc21 (stereo unspecified),"inconclusive [inhibitor, single point]",
Cc1cccc(N2CCN(C(=O)CCCn3c(=O)c4cccn4c4cccnc43)CC2)c1C,"inconclusive [inhibitor, single point]",
Cc1cccc(/C=C\c2nc3ccccc3c(=O)[nH]2)c1,active: 20.6 µM,
Cc1ccc(C)c(CN2CCCN(Cc3cc(C)ccc3C)S2(=O)=O)c1,"inconclusive [inhibitor, single point]",inconclusive: -33.6% [inhibitor]
Cc1ccc(S(=O)(=O)N2CCCCC2)cc1NC(=O)Cn1c(=O)cnc2ccccc21,inactive,
CC(=O)c1cccc(Nc2nc(-c3cccc([N+](=O)[O-])c3)cs2)c1,"inconclusive [inhibitor, single point]",
O=C(NNS(=O)(=O)c1ccc(F)cc1)c1cc(Cl)ccc1O,inactive,
COc1ccc(CNC(=O)c2nnn(CC(=O)Nc3cc(C)cc(C)c3)c2N)cc1,inactive,
CN(C)CC(O)COC(c1ccc(Cl)cc1)c1ccc(Cl)cc1 (stereo unspecified),"inconclusive [inhibitor, single point]",
Cc1cnc(C)c(N2CCC(C(=O)NCc3cccs3)CC2)n1,"inconclusive [inhibitor, single point]",
CCc1nc2ccccc2n1CCCCOc1ccccc1C,"inconclusive [inhibitor, single point]",
CCN(CC)CCN(C(=O)/C=C/c1cccs1)c1nc2ccc(C)cc2s1,"inconclusive [inhibitor, single point]",
C=CC(=O)Nc1sc2c(c1C(N)=O)CCCC2,active: 14.6 µM,
CC(C)C[C@@H](CN1CCCC1CN1C(=S)NC[C@@H]1Cc1ccccc1)N1C[C@H](Cc2ccc(O)cc2)N(CC2CCCCC2)C1=S (stereo partly specified),"inconclusive [inhibitor, single point]",
